# Experimental data: PubChem BioAssay AID1240 (Sanford-Burnham Center for Chemical Genomics, 2008)
# In all, about 50,000 compounds went through this assay and about 800 (1.6%) showed an effect of 50% or more. The list shows a part of the results.
# Molecular target: Bcl-2-like protein 10 (Homo sapiens) (UniProt Q9HD36)
# Assay: Phenotype converters, Bcl-B/TR3 peptide binding displacement, primary biochemical FP (AID 1240);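 also: 0% = Bcl-B with tracer peptide and DMSO and 100% = tracer peptide lacking Bcl-B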
# Conditions: GST-Bcl-B / FITC-TR3 peptide fluorescence polarization; stronger effect = higher value; compound at 3.75 mg/L
# UniProt Q9HD36, sequence (Q9HD36 whole entry, looked up): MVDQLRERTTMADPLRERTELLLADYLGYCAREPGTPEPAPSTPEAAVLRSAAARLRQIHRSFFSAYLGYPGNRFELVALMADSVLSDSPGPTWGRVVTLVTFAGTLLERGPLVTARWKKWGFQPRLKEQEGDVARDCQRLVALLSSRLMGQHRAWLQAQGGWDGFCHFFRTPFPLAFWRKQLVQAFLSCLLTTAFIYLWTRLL
row,SMILES,displacement
1,COc1ccc(NC(=O)NC(C)c2cccc3ccccc23)cc1OC (stereo not drawn),-13%
2,Cc1ccc(NC(=O)C2CC(=O)N=C(N)S2)cc1Cl (stereo not drawn),10.4%
3,Cc1ccc2nsnc2c1NC(=O)/C=C/c1ccccc1,1.4%
4,COc1cc(/C=C2\SC(=O)N(c3c(C)n(C)n(-c4ccccc4)c3=O)C2=O)ccc1O,-9%
5,C=CCNC(=O)C(=O)Nc1cc(OC)ccc1OC,5.4%
6,Cc1ccccc1OCCNC(=O)Cc1cccc2ccccc12,11.2%
7,O=c1c(-c2nc3ccccc3s2)c(C(F)(F)F)oc2cc(O)ccc12,-12.7%
8,COc1ccc(-c2nc(SC(C)C(=O)Nc3c(C)cc(C)cc3C)n[nH]2)cc1 (stereo not drawn),-20.1%
9,Cc1cc([N+](=O)[O-])ccc1NC1CCC(c2ccccc2)CC1 (stereo not drawn),-4.7%
10,CSc1nn(CN2CCCCC2)c(=S)s1,-20.2%
11,C(=N\Nc1nnnn1-c1ccccc1)/c1ccc2c(c1)OCO2,-20.2%
12,O=C(/C=C/c1ccc2c(c1)OCO2)c1ccc(F)cc1,-2.5%
13,Cc1ccc2c(Cl)c(-c3nnc(-c4ccc(Cl)cc4)o3)sc2c1,-13.2%
14,CCCC(=O)Nc1nc(-c2ccc(C)c3ccccc23)cs1,5.7%
15,O=C(COc1ccccc1[N+](=O)[O-])Nc1ccc2c(c1)Cc1ccccc1-2,-10.8%
16,COc1cccc(C2/C(=C(\O)c3ccccc3)C(=O)C(=O)N2CCN(C)C)c1 (stereo not drawn),1.1%
17,Cc1cc(OCC(=O)NC(C)c2ccccc2)cc(C)c1Cl (stereo not drawn),1.4%
18,Cc1ccccc1CNC(=O)c1ccccc1,6.8%
19,N#Cc1c2n(c3c(=O)n(CC(=O)c4ccc(Br)cc4)cnc13)CCCC2,-11.7%
20,COc1ccc(N(CC(=O)NC2CCCCC2)S(=O)(=O)c2ccc(C)cc2)cc1OC,4.4%
21,Cn1c2ccccc2c2nnc(SCc3ccccc3Cl)nc21,10.6%
22,CCOC(=O)c1sc2ncc([N+](=O)[O-])c(NC)c2c1N,-10.1%
23,CCOc1cccc(/C=C2\C(=O)NN(c3ccccc3)C2=O)c1O,13.1%

row,SMILES,displacement
1,O=C(NCCOc1ccccc1F)c1cc(F)c(F)cc1Cl,12.2%
2,COc1ccc(CC(=O)O/N=C(\N)Cc2ccc([N+](=O)[O-])cc2)cc1OC,14.2%
3,CCOc1ccc2nc(SC3CC(=O)N(c4ccccc4I)C3=O)sc2c1 (stereo not drawn),-29.6%
4,CC(=O)CC(=O)Nc1ccc(Br)cc1,13%
5,Clc1ccc(CSc2nnnn2-c2ccccc2)cc1,4.7%
6,COc1cc([N+](=O)[O-])ccc1NC(=S)NC(=O)c1ccco1,-0.2%
7,COc1cc(NC(=O)[C@@H]2C3C=CC(C3)[C@@H]2C(=O)O)c(OC)cc1Cl (stereo partly drawn),11.8%
8,O=C(Nc1ccc(S(=O)(=O)N2CCCCC2)cc1)c1cccc([N+](=O)[O-])c1,6.8%
9,COC(=O)C(NC(=O)C(C)(C)C)C12CC3CC(CC(C3)C1)C2 (stereo not drawn),6.1%
10,CCOc1ccc(-n2nc3ccc(NC(=O)c4ccco4)cc3n2)cc1,-10.3%
11,O=C1c2ccccc2NC(c2cccc([N+](=O)[O-])c2)N1O (stereo not drawn),11%
12,COC(=O)/C=C1/N/C(=N/c2nc3ccccc3o2)NC1=O,-4.2%
13,O=C(Cc1ccccc1)Nc1ccc2oc(-c3ccc(Cl)cc3Cl)nc2c1,12.8%
14,COc1ccc(CCNC(=O)C(=O)NCc2cccnc2)cc1,-2.9%
15,O=C(NNC(=O)c1cccc2ccccc12)c1cccc(Cl)c1,-13.5%
16,O=C1C(c2ccccc2)C(c2cccs2)NC(c2cccs2)C1c1ccccc1 (stereo not drawn),15.7%
17,COCCCNC(=O)CN(c1ccc(Cl)cc1)S(=O)(=O)c1ccccc1,12.6%
18,COC(=O)COc1ccc2c(=O)c(Oc3ccc(C(C)(C)C)cc3)coc2c1,8%
19,COc1ccc(/C=C2/Sc3ccccc3C2=O)cc1Br,116%
20,COc1ccc(CCNC(=O)c2ccc([N+](=O)[O-])c(C)c2)cc1OC,5.9%
21,CC1CCN(C(=O)c2ccc(N3C(=O)c4ccccc4C3=O)cc2)CC1,-11.9%
22,Cc1cccc(C(=O)Nc2ccc(NC(=O)COc3ccccc3C)cc2)c1,1.7%
23,COC(=O)CN1C(=O)/C(=C\c2ccc(F)cc2)SC1=S,1.2%

row,SMILES,displacement
1,Cc1ccc(CN2CCN(/N=C\c3cc(Br)ccc3O)CC2)cc1,-6%
2,COc1c(Cl)cc(C(=O)Nc2cc(-c3nc4cc(Cl)ccc4o3)ccc2C)cc1Cl,7.7%
3,CC1CCC(C(C)C)C(OC(=O)C[n+]2cccc(C(N)=O)c2)C1 (stereo not drawn),5.2%
4,CCOC(=O)c1ccc(NC(=NC)SC2CC(=O)N(c3ccccc3F)C2=O)cc1 (stereo not drawn),-4.5%
5,Cc1ccc(C)c(NC(=O)CSc2nc3ccccc3s2)c1,-14.8%
6,CNc1nc(Nc2ccccc2)nc(OCC(F)(F)F)n1,-3.9%
7,O=C(CN1C(=O)/C(=C/c2ccccc2)SC1=S)Nc1cccc(C(=O)O)c1,13.9%
8,O=C(N/N=C/c1ccccc1O)C12CC3CCC(CC(C3)C1)C2,-2.8%
9,CC1CCCN(CC(O)COc2ccc(Cl)cc2)C1 (stereo not drawn),4.8%
10,Cc1nc2ccccc2n1C(=O)c1ccco1,-3.1%
11,CCc1ccc(NC(=O)CSc2nc3ccc(C)cc3[nH]2)cc1,-2.6%
12,COc1ccc(C(=O)Nc2ccc([N+](=O)[O-])cc2Br)cc1,-0.3%
13,CCOC(=O)Cc1nnc2c(Nc3cccc(Br)c3)nc3nonc3n12,-9.5%
14,O=C1C=C(Nc2ccc(O)cc2)CC(c2ccccc2)C1 (stereo not drawn),0.4%
15,O=C(COc1ccccc1)Nc1nc2ccccc2s1,3.3%
16,O=C(N/N=C/c1ccc(-c2cccc([N+](=O)[O-])c2)o1)c1cccc([N+](=O)[O-])c1,6.3%
17,Cc1ccc2nc(C)c(C(=O)NN=C3CCN(C)CC3)n2c1,-16.3%
18,C=CCn1c(-c2ccc(OC)cc2)n[nH]c1=S,4.7%
19,CC1CCCN(C(=O)c2sc3cc([N+](=O)[O-])ccc3c2Cl)C1 (stereo not drawn),-6.2%
20,Cc1ccc(NC(=O)c2ccccc2C(=O)O)c([N+](=O)[O-])c1,11.5%
21,Cc1ccnc(NC(=O)C(C)Oc2cccc(Cl)c2)c1 (stereo not drawn),8.9%
22,Cc1ccc(NC(=O)c2ccc(C(=O)O)cc2C(=O)O)c(C)c1,10.8%
23,CC(=O)N1C(=O)/C(=C2\SC(=S)N(c3cccc(Br)c3)C2=O)c2ccccc21,7.1%

row,SMILES,displacement
1,COc1ccc(C2C3=C(CC(C)(C)CC3=O)Nc3[nH]c(=O)[nH]c(=O)c32)cc1 (stereo not drawn),0.8%
2,COc1ccc(CN2CCN(C3CCCC3)CC2)c(OC)c1OC,-14.3%
3,NC1=NC(=O)C(CC(=O)Nc2ccc([N+](=O)[O-])cc2)S1 (stereo not drawn),-11.5%
4,COc1ccc(/C=C(/C#N)C(N)=O)cc1O,23%
5,COc1cc(C(=S)N2CCOCC2)cc(OC)c1OC(=O)c1ccc(C)cc1,14.1%
6,COc1ccc(S(=O)(=O)N2CCCC2)cc1OC,-8.9%
7,CC(=O)/C(=C/c1ccc(N(C)C)cc1)[N+](=O)[O-],-1.6%
8,Cc1ccc(N=C(NO)C(=Nc2ccc(C)c(C)c2)NO)cc1C,8.4%
9,O=C(O)c1ccc(C(=O)N(C2CCCCC2)C2CCCCC2)cc1,7.9%
10,CCCCCCCCC(=O)N/N=C/c1ccccn1,-1.4%
11,C=CCC(Nc1ccccc1)c1ccco1 (stereo not drawn),-9.8%
12,COc1ccc(Cl)cc1NC(=O)C1C2CCC(C2)C1C(=O)O (stereo not drawn),-3.1%
13,CCN1C(=O)/C(=C/c2cccc(Cl)c2Cl)SC1=S,-0.2%
14,O=C(c1ccc(F)cc1)N1CCN(c2ccc([N+](=O)[O-])cc2Cl)CC1,8.4%
15,Cc1cccc(OCC(=O)N/N=C/c2ccc(OC(=O)c3cccs3)cc2)c1,4.2%
16,O=C(CSc1nnc(CCCN2C(=O)c3cccc4cccc(c34)C2=O)n1-c1ccccc1)NCCCO,11.2%
17,O=C(O/N=C(/c1ccccc1)c1ccncc1)c1ccc(Br)cc1,13.6%
18,O=C(Nc1ccccc1Cl)c1cccc(NC(=O)C(F)(F)F)c1,4.7%
19,COc1ccccc1N/N=C(/C#N)C(=N)N1CCOCC1,-5.8%
20,COc1ccc(C)cc1NC(=O)C(=O)NCc1ccc(C)cc1,12.1%
21,Cc1ccc(OCC(=O)Nc2ccc(C)cc2[N+](=O)[O-])c(C)c1,6.1%
22,Cc1ccn2c(NC(=O)c3ccco3)c(-c3ccccc3)nc2c1,10.8%
23,COC(=O)c1c(NC(=O)c2ccco2)sc2c1CCC(C)C2 (stereo not drawn),0.1%

row,SMILES,displacement
1,COc1ccccc1OCCCN1CCOCC1,-1.3%
2,COC(=O)c1c(NC(=O)c2cncc(Br)c2)sc2c1CCC2,16.4%
3,O=[N+]([O-])c1ccccc1S(=O)(=O)N1CCN(c2ccccn2)CC1,0.3%
4,Cc1c(Cl)cccc1N=C1NC(=O)/C(=C/c2ccc(OC(C)C)cc2)S1,-28.3%
5,Cc1c(CCNC(=O)Nc2ccccc2)c2ccccc2n1Cc1ccccc1,9.1%
6,O=C(/C=N/O)NCCN1CCCCC1,9.2%
7,O=C(CCCOc1ccc(Cl)cc1Cl)Nc1nc(-c2ccc([N+](=O)[O-])cc2)cs1,0.3%
8,CC1SC(c2ccc(Cl)cc2Cl)NC1=O (stereo not drawn),-5.4%
9,CCCOC(=O)c1ccc(NC(=O)c2ccc(OCc3ccccc3)cc2)cc1,-3.3%
10,Cc1ccc(C(=O)N/C(=C/c2ccccc2Cl)C(=O)NN)cc1,-11.6%
11,Cc1ccccc1NC(=O)C1CC(=O)N(c2ccc(Br)cc2)C1 (stereo not drawn),-3.7%
12,CCN(CC)c1ccc(C=Nc2cccc(C(N)=O)c2)c(O)c1,-0.3%
13,COC(=O)c1cc(C)sc1NC(=O)c1sc2cc(Cl)ccc2c1Cl,-2.4%
14,O=S(=O)(Nc1nc2ccccc2nc1Nc1cccc(O)c1)c1ccc(Cl)cc1,7.1%
15,Cc1cc(NC(=O)c2ccccc2[N+](=O)[O-])ccc1-c1cc2ccccc2oc1=O,0.4%
16,Cc1ccc(C(=O)Nc2nc(-c3ccc(F)cc3)cs2)cc1[N+](=O)[O-],6.9%
17,CCOC(=O)c1ccccc1NC(=O)CN(c1ccc(OCC)cc1)S(=O)(=O)c1ccc(SC)cc1,-2.2%
18,Cc1cccc(OCC(=O)Nc2cccc(C(F)(F)F)c2)c1,4.5%
19,COc1ccc(-c2nc3cc(NC(=S)NC(=O)c4ccco4)ccc3o2)cc1OC,23%
20,COC(=O)C1=C(C)NC(=S)NC1c1cccs1 (stereo not drawn),11.8%
21,O=C1OC(Nc2ncccn2)(c2ccccc2)c2ccccc21 (stereo not drawn),-7.3%
